A lower IC50 marks a more sensitive line; fits outside the tested doses are given as limits. AUC, from the same fit, is the share of area under the viability curve across the 256-fold dose range; the more sensitive the line, the further below 1. For some of these results: The top dose, if marked as inferred, was calculated from the reported fits.
Assays:
Assay in all cases: Viability of human cancer cell lines after 72 h of drug (GDSC screen)
[1] = compound: O=C(NOCC1CC1)c1ccc(F)c(F)c1Nc1ccc(I)cc1Cl [CI-1040]; conditions: top dose 10 µM; top dose inferred
Description: (§1)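 Human cancer cell lines in 384-well plates, medium with 10% serum, drug for 72 h over a 256-fold dose range (nine 2-fold or five 4-fold steps up to the top dose). Adherent lines were fixed and stained with the nucleic acid dye Syto60, suspension lines read with resazurin; signal relative to control wells, capped at 0 and 100%. One two-parameter sigmoid per drug and line, fitted in a mixed model over all curves with the slope shared within a line.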

[2] = compound: Oc1ccc2ccccc2c1SSc1c(O)ccc2ccccc12 [IPA-3]; conditions: top dose 32 µM; top dose inferred
Description: as §1

[3] = compound: COc1cc2c(Oc3ccc(NC(=O)C4(C(=O)Nc5ccc(F)cc5)CC4)cc3F)ccnc2cc1OCCCN1CCOCC1 [XL-880]; conditions: top dose 5.12 µM; top dose inferred
Description: as §1

[4] = compound: CN1CCc2c(c3ccccc3n2Cc2ccc(C(=O)NO)cc2)C1 [Tubastatin A]; conditions: top dose 20 µM
Description: as §1

[5] = compound: Cn1nnc2c(C(N)=O)ncn2c1=O [Temozolomide]; conditions: top dose 30 µM
Description: as §1

Cell Line | AUC [1] | IC50 [1] [µM] | AUC [2] | IC50 [2] [µM] | AUC [3] | IC50 [3] [µM] | AUC [4] | IC50 [4] [µM] | AUC [5] | IC50 [5] [µM]
ACHN (kidney, adherent) | 0.738 | 3.33 | 0.756 | 12.4 | 0.656 | 0.923 | 0.967 | > 20 | 0.971 | > 30
HN (head and neck, adherent) | 0.699 | 2.18 | 0.988 | > 32 | 0.879 | 4.7 | 0.988 | > 20 | 0.987 | > 30
RMG-I (ovary, adherent) | 0.954 | > 10 | 0.872 | > 32 | 0.682 | 1.13 | 0.962 | > 20 | 0.981 | > 30
FU97 (stomach, adherent) | 0.895 | > 10 | 0.882 | > 32 | 0.637 | 0.776 | 0.961 | > 20 | 0.982 | > 30
NCI-H596 (lung adenocarcinoma, adherent) | 0.927 | > 10 | 0.879 | > 32 | 0.742 | 1.98 | 0.982 | > 20 | 0.976 | > 30
NCI-H520 (lung squamous cell carcinoma, adherent) | 0.987 | > 10 | 0.898 | > 32 | 0.601 | 0.612 | 0.905 | > 20 | 0.986 | > 30
OE33 (oesophagus, adherent) | 0.88 | > 10 | 0.912 | > 32 | 0.478 | 0.276 | 0.913 | > 20 | 0.957 | > 30
SW1990 (pancreas, adherent) | 0.855 | > 10 | 0.835 | 26.5 | 0.864 | > 5.12 | 0.982 | > 20 | 0.964 | > 30
SBC-5 (small cell lung carcinoma, adherent) | 0.819 | 4.37 | 0.939 | > 32 | 0.676 | 0.89 | 0.993 | > 20 | 0.987 | > 30
HMV-II (melanoma, adherent) | 0.626 | 1.51 | 0.837 | 28.6 | 0.82 | 3.81 | 0.961 | > 20 | 0.98 | > 30
COLO-679 (melanoma, adherent) | 0.428 | 0.387 | 0.862 | > 32 | 0.947 | > 5.12 | 0.981 | > 20 | 0.97 | > 30
DU-145 (prostate, adherent) | 0.878 | > 10 | 0.704 | 8.09 | 0.729 | 1.56 | 0.959 | > 20 | 0.98 | > 30
23132-87 (stomach, adherent) | 0.879 | > 10 | 0.979 | > 32 | 0.762 | 1.89 | 0.948 | > 20 | 0.985 | > 30
YKG-1 (glioma, adherent) | 0.856 | 8.2 | 0.741 | 9.93 | 0.672 | 0.971 | 0.963 | > 20 | 0.985 | > 30
CAL-51 (breast, adherent) | 0.927 | > 10 | 0.595 | 3.5 | 0.874 | 3.87 | 0.991 | > 20 | 0.988 | > 30
SW780 (bladder, adherent) | 0.734 | – | 0.986 | > 32 | 0.774 | 2.19 | 0.986 | > 20 | 0.924 | > 30
RPMI-2650 (head and neck, adherent) | 0.94 | > 10 | 0.77 | 13.2 | 0.583 | 0.551 | 0.979 | > 20 | 0.98 | > 30
SK-MEL-24 (melanoma, adherent) | 0.714 | 2.91 | 0.862 | > 32 | 0.504 | 0.329 | 0.975 | > 20 | 0.962 | > 30
NCI-H2172 (non-small cell lung carcinoma, adherent) | 0.975 | > 10 | 0.87 | > 32 | 0.783 | 3 | 0.977 | > 20 | 0.981 | > 30
SCC-25 (head and neck, adherent) | 0.814 | 6.35 | 0.976 | > 32 | 0.489 | 0.297 | 0.89 | > 20 | 0.975 | > 30
DK-MG (glioma, adherent) | 0.795 | 7.55 | 0.856 | > 32 | 0.397 | 0.146 | 0.978 | > 20 | 0.971 | > 30
Hs633T (fibrosarcoma, adherent) | 0.551 | 0.84 | 0.711 | 6.9 | 0.558 | 0.446 | 0.972 | > 20 | 0.991 | > 30
JHH-7 (liver, adherent) | 0.895 | > 10 | 0.823 | 17.3 | 0.659 | 0.856 | 0.989 | > 20 | 0.981 | > 30
HO-1-u-1 (head and neck, adherent) | 0.834 | 6.12 | 0.983 | > 32 | 0.751 | 1.63 | 0.962 | > 20 | 0.978 | > 30
M14 (melanoma, adherent) | 0.341 | 0.22 | 0.979 | > 32 | 0.55 | 0.442 | 0.98 | > 20 | 0.959 | > 30
EBC-1 (lung squamous cell carcinoma, adherent) | 0.692 | 2.33 | 0.836 | 25.2 | 0.356 | 0.121 | 0.983 | > 20 | 0.955 | > 30

Reference: the supplement of paper PMC4967469
